# Assay results as given in PubChem BioAssay (NCATS).
# The inconclusive results got no clear call from the source; some entries with a clear call stand among them for comparison. No potency is given beside an inconclusive call; the fits are too rough. Calls of active or inactive are those of the source. Calls come from the whole dose curve; as a rule, active = well fitted inhibition curve with a large enough effect; inconclusive = small, poorly fitted or top-dose-only effect, or another doubt; inactive = no such curve, though single readings can be large or run the other way.
# Target: DNA polymerase eta (Homo sapiens) (UniProt Q9Y253)
# Assay: qHTS for Inhibitors of Polymerase Eta: Confirmatory Assay for Cherry-picked Compounds (AID 720502)
# Details: Pol eta primer extension, TAMRA/BHQ fluorescence, 10 min
# Procedure, shortened: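 10 nM Pol eta + cpd, 15 min RT; start w/ 50 nM final primer/TAMRA-reporter/BHQ-2-template substrate; kinetic read 0 and 10 min, ex 525/em 598 nm. Buffer-only wells = negative control.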
# Potency is the fitted concentration of half-maximal effect; tags give direction and shape of the fitted curve.
# UniProt Q9Y253, sequence (Q9Y253 whole entry, looked up): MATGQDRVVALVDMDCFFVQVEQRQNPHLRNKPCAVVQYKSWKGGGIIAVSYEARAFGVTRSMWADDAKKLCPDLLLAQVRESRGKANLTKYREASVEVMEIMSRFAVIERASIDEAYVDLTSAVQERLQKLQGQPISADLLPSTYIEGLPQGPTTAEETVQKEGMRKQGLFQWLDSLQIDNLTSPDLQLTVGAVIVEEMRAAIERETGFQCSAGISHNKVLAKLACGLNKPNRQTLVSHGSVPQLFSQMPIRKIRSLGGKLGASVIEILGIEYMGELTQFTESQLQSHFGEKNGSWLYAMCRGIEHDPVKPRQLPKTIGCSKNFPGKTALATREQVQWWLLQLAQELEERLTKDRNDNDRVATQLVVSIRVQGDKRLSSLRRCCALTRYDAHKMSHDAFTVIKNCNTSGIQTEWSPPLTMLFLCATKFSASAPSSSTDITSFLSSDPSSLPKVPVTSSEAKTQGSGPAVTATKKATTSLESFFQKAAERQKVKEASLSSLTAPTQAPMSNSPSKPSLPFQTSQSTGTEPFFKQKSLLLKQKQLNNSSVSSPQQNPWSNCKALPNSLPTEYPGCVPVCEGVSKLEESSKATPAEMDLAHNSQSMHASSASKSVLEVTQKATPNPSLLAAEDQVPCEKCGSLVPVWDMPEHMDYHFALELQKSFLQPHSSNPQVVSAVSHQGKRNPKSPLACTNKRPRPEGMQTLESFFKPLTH
row,Compound,Potency
1,N#Cc1c(NC(=O)c2ccncc2)sc2c1CCC2,active: 75.7 µM
2,CCC1CCCCN1C(=O)c1c[nH]c2ccc(S(=O)(=O)Nc3cccc(OC)c3)cc2c1=O (configuration not stated),"inconclusive [inhibitor, single point]"
3,O=C(C=C1SCCS1)/C=C/c1ccco1,"inconclusive [inhibitor, single point]"
4,CCOC(=O)c1cc(-c2ccc(/C=C3/C(=O)NC(=O)C(C#N)=C3C)o2)ccc1Cl,active: 47.8 µM
5,NC(CSC1(c2ccc(Cl)cc2)c2ccccc2-c2ccccc21)C(=O)O (configuration not stated),"inconclusive [inhibitor, single point]"
6,Cc1cc(-c2n[nH]c(=S)n2/N=C/C=C/c2ccco2)n[nH]1,"inconclusive [inhibitor, single point]"
7,CC(=O)c1ccc(S(=O)(=O)Nc2ccc(-c3ccc4nnc(C)n4n3)cc2)cc1,"inconclusive [inhibitor, single point]"
8,Cc1cc(Cl)n2c(nc3cc(F)c(F)cc32)c1C#N,"inconclusive [inhibitor, single point]"
9,CS(=O)(=O)c1ccc(C(=O)OC2CCOC2=O)cc1[N+](=O)[O-] (configuration not stated),active: 37.9 µM
10,O=C(COC(=O)/C=C/c1ccco1)Nc1ccc(F)cc1Cl,"inconclusive [inhibitor, single point]"
11,Cc1sc2nc(SCC(=O)N3CC(C)OC(C)C3)n(C)c(=O)c2c1C (configuration not stated),"inconclusive [inhibitor, single point]"
12,COc1cc(C(CC(=O)N2CCCC2)c2c(OC)cc(OC)c3c(-c4ccccc4)cc(=O)oc23)cc(OC)c1OC (configuration not stated),"inconclusive [inhibitor, single point]"
